The source of these data is patent US11897961B2, “Anti-CD123 antibodies and conjugates and derivatives thereof” (IMMUNOGEN, INC., priority 2015, dated 2024).

For one data set, the system named is KASUMI-3 cells. The experiment in a line: In vitro cytotoxicity assay (WST-8), KASUMI-3. The data set is classed as cell-based, human. Particulars: KASUMI-3, P53 and MDR1; read-out: huCD123-CysMab-D5 IC50 pMol. For orientation: Formazan colour is commonly taken as a measure of viable cells.
For data set [1], the system named is MV4-11 cells. The experiment in a line: MV4-11 disseminated model in NOD SCID mice. As to conditions: for Median Survival Time: single i.v., day 7.
Data set [2] concerns MV4-11 cells. In words: In vitro cytotoxicity assay (WST-8), MV4-11. The class given is cell-based, human. Particulars: MV4-11, FLT/ITD; read-out: huCD123-CysMab-D5 IC50 pMol.
In another data set the test system is SHI-1 cells. The experiment in a line: In vitro cytotoxicity assay (WST-8), SHI-1. As to conditions: read-out: huCD123-CysMab-D5 IC50 pMol; SHI-1, P53.
Another data set relates to MOLM-1 cells. In words: In vitro cytotoxicity assay (WST-8), MOLM-1. As to conditions: read-out: huCD123-CysMab-D5 IC50 pMol; MOLM-1, MDR1 and EVI1 OX.
Data set [3] can be described thus: In vivo tolerability in CD-1 mice. Particulars: for Number of mice euthanized for >20 BW loss: single i.v. On the set-up: species or system mouse. As for the experimental part:
Female CD-1 mice received a single intravenous injection into the lateral tail vein of vehicle, 150 μg/kg (by D5, 12 mg/kg by huCD123) of huCD123-CysMab-D5, 125 μg/kg (by D5, 10 mg/kg by huCD123) of huCD123-CysMab-D5, 100 μg/kg (by D5, 8 mg/kg by huCD123) of huCD123-CysMab-D5, 150 μg/kg (by sD1, 14.3 mg/kg by huCD123) of huCD123-SeriMab-sD1 or 125 μg/kg (by sD 1, 11.9 by huCD123) of huCD123-SeriMab-sD 1. […] The mice were observed daily for 33 days, and body weights were determined. If an animal experienced greater than 20% body weight loss or became moribund, the animal was euthanized. Other than body weight loss, no other clinical observations were made during the course of the study in any of the treatment.
Female CD-1 mice received a single intravenous injection into the lateral tail vein of vehicle, 75 μg/kg (by D2, 4.4 mg/kg by huCD123) of huCD123-lysine linked-D2, 100 μg/kg (by D2, 5.9 mg/kg by huCD123) of huCD123-lysine linked-D2 or 125 μg/kg (by D2, 7.4 mg/kg by huCD123) of huCD123-lysine linked-D2. […] The mice were observed daily for 22 days, and body weights were determined. If an animal experienced greater than 20% body weight loss or became moribund, the animal was euthanized.

B1: huCD123-CysMab-D5 (conjugate)
heavy: QVQLVQSGAEVKKPGASVKVSCKASGYIFTSSIMHWVRQAPGQGLEWIGYIKPYNDGTKYNEKFKGRATLTSDRSTSTAYMELSSLRSEDTAVYYCAREGGNDYYDTMDYWGQGTLVTVSS[here human IgG1 constant region with changes without letters]
light: DIQMTQSPSSLSASVGDRVTITCRASQDINSYLSWFQQKPGKAPKTLIYRVNRLVDGVPSRFSGSGSGNDYTLTISSLQPEDFATYYCLQYDAFPYTFGQGTKVEIKRTVAAPSVFIFPPSDEQLKSGTASVVCLLNNFYPREAKVQWKVDNALQSGNSQESVTEQDSKDSTYSLSSTLTLSKADYEKHKVYACEVTHQGLSSPVTKSFNRGEC
Regarding B1, the IC50 (usually the point on the concentration scale where inhibition reaches its midpoint) with KASUMI-3 cells worked out at 3 pM; with MV4-11 cells [2], 1 pM; in the data set on SHI-1 cells it was 6 pM; with MOLM-1 cells, 120 pM. For the same molecule, the figures for the “Tumor Growth Delay (T-C, Days)” value in the data set with MV4-11 cells [1] (1 μg/kg by payload) and with MV4-11 cells [1] (3 μg/kg by payload) were 35 days and 32 days, respectively. The “Median Survival Time” value in the data set with MV4-11 cells [1] (1 μg/kg by payload) worked out at 81 days; in the data set on MV4-11 cells [1] (3 μg/kg by payload), 78 days. Moreover, the tolerability result in data set [3] (100 μg/kg by drug payload) is on record as “tolerated”; in data set [3] (125 μg/kg by drug payload), “not well tolerated”; in data set [3] (150 μg/kg by drug payload), “not tolerated”. The “Number of mice euthanized for >20 BW loss” value in data set [3] (100 μg/kg by drug payload) is reported as 0/8; in data set [3] (125 μg/kg by drug payload) it was 1/8; in data set [3] (150 μg/kg by drug payload), 1/8. Also, the “% decrease in mean body weight at nadir” value in data set [3] (125 μg/kg by drug payload) was found to be 8.6%; in data set [3] (150 μg/kg by drug payload) it was 11%. The “Body weight nadir” value was determined as 10 days in data set [3] (125 μg/kg by drug payload) and 12 days in data set [3] (150 μg/kg by drug payload).
